From PubChem BioAssay AID686978 (National Center for Advancing Translational Sciences (NCATS), 2013)
Where “and” joins values, the source holds several entries; their conditions need not be identical. Equal entries are not always repeated. The campaign covered roughly 420,000 compounds. About 64,000 (15%) were called active. The inconclusive results got no clear call from the source; some entries with a clear call stand among them for comparison. Calls come from the whole dose curve; as a rule, active = well fitted inhibition curve with a large enough effect; inconclusive = small, poorly fitted or top-dose-only effect; inactive = flat fitted curve, though single readings scatter. Potencies beside an inconclusive call are fits to weak or partial responses and may not hold up.

Experiment: qHTS for Inhibitors of human tyrosyl-DNA phosphodiesterase 1 (TDP1): qHTS in cells in absence of CPT; note: nearly all actives have a fitted effect of over 55% in size
Conditions: DT40 Tdp1-/- hTDP1 cells, no CPT, ATP luminescence, 48 h; activity change, negative = growth inhibition: at 46.2 µM (top of the series) unless noted
How it was run: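 Luminescent ATP content (CellTiter-Glo) served as the growth readout. Knockout chicken DT40 cells expressing human TDP1 were exposed to compounds without camptothecin for a minimum 48 hr at 37 °C.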
% is set by controls: 0 for no effect and ±100 for the full control effect; potency is the fitted concentration of half-maximal effect; tags give direction and shape of the fitted curve.

| SMILES | Potency | activity change, negative = growth inhibition |
| --- | --- | --- |
| O=C(CCNC(=O)c1ccccc1Cl)Nc1ccc(Br)c(C(F)(F)F)c1 | inconclusive: 29.1 µM [inhibitor, single point] | – |
| Cc1ccc(C(=O)N/C(=C/c2cccnc2)C(=O)O)cc1 | – | inactive: 12% |
| Cc1ccc(CNC(=O)c2ccc(S(=O)(=O)Nc3c(C)n(C)n(-c4ccccc4)c3=O)cc2)cc1 | active: 20.6 µM | – |
| Cc1ccc(-c2ccccc2C2=CC(=O)CC(C)(C)C2=O)cc1 | inconclusive: 29.1 µM [inhibitor, single point] | – |
| COc1ccc(C(=O)N2CCC3(CC2)CCN(c2ncccn2)CC3)cc1 | – | inactive: -26.2% |
| O=C(NC1CCCCC1)c1n[nH]c2c1CC(c1ccccc1)CC2 (configuration not stated) | inconclusive: 20.6 µM [inhibitor, partial curve] | – |
| CN1C(CCl)Nc2cc(Cl)c(S(N)(=O)=O)cc2S1(=O)=O (configuration not stated) | inconclusive: 33.5 µM [inhibitor, single point] and inconclusive: 29.1 µM [inhibitor, single point] | – |
| COc1ccc(C(=O)Nc2ccccc2C(=O)NC(C)C)cc1OC | inconclusive: 29.1 µM [inhibitor, single point] | – |
| CC1CCN(C(=O)Cn2cc(SCc3ccccc3)c3ccccc32)CC1 | active: 16.4 µM | – |
| CCOc1ccc(N(C)S(=O)(=O)c2cnc[nH]2)cc1 | – | inactive: -8.49% |
| CC(C)c1ccc(NC(=O)c2ccc(F)c(S(=O)(=O)N3CCCC3)c2)cc1 | inconclusive: 9.2 µM [inhibitor, partial curve] | – |
| CCOc1ccccc1-n1c(CNc2ccc(F)cc2)nnc1SCC(=O)NCc1ccco1 | – | inactive: -21% |
| O=C(NCc1nc2ccccc2[nH]1)C1=C[C@@H](c2csc3ccccc23)C[C@@H](OCc2ccc(CO)cc2)O1 | active: 20.6 µM | – |
| NS(=O)(=O)c1ccc(CCNCC(=O)NC2CC2)cc1 | – | inactive: 1.02% |
| CC(=O)N1CCC(C(=O)Nc2cc(S(=O)(=O)N3CCCCC3)ccc2C)CC1 | – | inactive: -16.3% |
| CCOC(=O)[C@H]1[C@H]2COc3cc(OC)ccc3[C@@H]2N2C(=O)c3cc(F)c(F)cc3NC(=O)[C@@]12C | inconclusive: 25.9 µM [inhibitor, single point] | – |
| O=C1CN(C(=O)COC(=O)c2ccccc2NC(=O)c2ccco2)c2ccccc2N1 | inconclusive: 14.6 µM [inhibitor, single point] | – |
| CCCCNC(=O)Cn1c(=O)c2c(ncn2CC)n(Cc2ccccc2)c1=O | inconclusive: 18.4 µM [inhibitor, single point] | – |
| COc1ccc(NS(=O)(=O)c2ccc(I)cc2)cc1N1CCN(C)CC1 | active: 29.9 µM | – |
| O=C(NC(=S)Nc1cccc2cccnc12)c1ccccc1 | – | inactive: -34% |
| Cc1noc(C)c1-c1ccc(C(=O)NCCc2ccccc2)c2occc12 | inconclusive: 29.1 µM [inhibitor, single point] | – |
| COc1ccc(C(C)=O)cc1CSc1nnc(-c2ccncc2)o1 | – | inactive: -34.1% |
| CCCn1cnc2c(SCc3ccc(Cl)cc3)nc(N)nc21 | inconclusive: 16.4 µM [inhibitor, single point] | – |
| COCc1cc(=O)[nH]c(SCCS(=O)(=O)c2ccc(C)cc2)n1 | – | inactive: -7.43% |

| SMILES | Potency | activity change, negative = growth inhibition |
| --- | --- | --- |
| Nc1cc(S(=O)(=O)Nc2ccc(Cl)cc2)ccc1N1CCOCC1 | active: 5.17 µM | – |
| COC(=O)c1ccc(NS(=O)(=O)c2cc3c4c(c2)CCN4C(=O)CC3)cc1 | inconclusive: 20.6 µM [inhibitor, partial curve] | – |
| Cc1cc(C)c2c(N)c(C(=O)NCC3CCCCC3)sc2n1 | inconclusive: 20.6 µM [inhibitor, single point] | – |
| O=C1Nc2ccc(Br)cc2C1=Nc1cccnc1 | active: 8.2 µM | – |
| O=C(Nc1ccccc1N1CCCC1)c1ccc([N+](=O)[O-])o1 | inconclusive: 18.4 µM [inhibitor, single point] | – |
| Brc1cccc[n+]1CCC[n+]1ccccc1Br | inconclusive: 7.94 µM [inhibitor, full curve, poor fit] | – |
| O=C(NCc1ccccc1)/C(=C/c1ccc([N+](=O)[O-])cc1)NC(=O)c1ccco1 | – | inactive: 7.46% |
| CCN(CC)S(=O)(=O)c1cccc(C(=O)N/N=C(\C)c2ccc(O)cc2O)c1 | active: 6.51 µM | – |
| CC(C)CCNC(=O)c1ccc(C2SCC(=O)N2Cc2ccco2)cc1 (configuration not stated) | inconclusive: 18.4 µM [inhibitor, single point] | – |
| COC(=O)c1ccsc1NC(=O)CN1CCN(Cc2ccc3c(c2)OCO3)CC1 | inconclusive: 25.9 µM [inhibitor, single point] | – |
| C[C@H](O)[C@@H]1C(=O)N2CCc3c([nH]c4ccccc34)[C@@H]2C[C@@H]1N(C)Cc1ccc(Cl)cc1 | active: 29.1 µM | – |
| COc1cc(NC(=O)c2cccc3c2C(=O)N(Cc2cccnc2)C3)cc(OC)c1OC | inconclusive: 29.1 µM [inhibitor, single point] | – |
| CCC(=O)N1CCN(c2cc(N3CCN(C)CC3)c(F)cc2[N+](=O)[O-])CC1 | – | inactive: -19.8% |
| C=CCNc1n[nH]c(=S)s1 | active: 2.59 µM | – |
| COC(=O)c1ccc(Oc2c(C(F)(F)F)oc3c(CN4CCN(C)CC4)c(O)ccc3c2=O)cc1 | – | inactive: -17% |
| CCCNc1c(NS(=O)(=O)c2ccc(C)cc2C)c(=O)oc2ccccc12 | – | inactive: -9.32% |
| CCOc1ccc(-n2cc(C(=O)Nc3ccccc3OCC)c3cc(OC)c(OC)cc3c2=O)cc1 | inconclusive: 7.31 µM [inhibitor, partial curve] | – |
| Cc1cccc(Nc2ncnc3ccc(Br)cc23)c1 | inconclusive: 29.1 µM [inhibitor, single point] | – |
| O=C(NC1CCCCC1)N(Cc1nc2ccccc2c(=O)[nH]1)C1CCCC1 | – | inconclusive: -31.4% [inhibitor] |
| Cc1cccc(C(=O)N2CCC(Cc3ccccc3)CC2)c1[N+](=O)[O-] | active: 6.51 µM | – |
| CC1=NN(C(N)=S)C(=O)C1N=Nc1ccccc1O (configuration not stated) | – | inactive: -2.21% |
| CCCNC(=O)C1(C)CCN(C(=O)c2cc(F)cc(F)c2)C1 (configuration not stated) | – | inactive: 6.19% |
| CC1CCN(c2nnc(-n3cccc3CNc3cccc(F)c3)s2)CC1 | inconclusive: 29.1 µM [inhibitor, single point] | – |
